# In all, about 110,000 compounds were measured (“z-score”: median about -0.1, highest 2% from about 2 on). Some of the results follow. Activity calls are given as the source filed them.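 The calls were made as follows: active = z-score in the third read window above 3 or below -3; inactive = the rest.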
# Molecular target: Metabotropic glutamate receptor 8 (Rattus norvegicus) (UniProt P70579)
# Assay: mGluR8 Gi/Go-coupled signaling modulation – cell-based, rat, thallium flux, HTS, primary screen (AID 488969)
# Conditions: HEK293 rat mGluR8, GIRK (G protein-gated inwardly rectifying potassium channel) thallium flux, FluoZin2; at 10 µM; stronger effect = higher value; submaximal glutamate (EC20) added with thallium
# UniProt P70579, sequence (P70579 whole entry, looked up): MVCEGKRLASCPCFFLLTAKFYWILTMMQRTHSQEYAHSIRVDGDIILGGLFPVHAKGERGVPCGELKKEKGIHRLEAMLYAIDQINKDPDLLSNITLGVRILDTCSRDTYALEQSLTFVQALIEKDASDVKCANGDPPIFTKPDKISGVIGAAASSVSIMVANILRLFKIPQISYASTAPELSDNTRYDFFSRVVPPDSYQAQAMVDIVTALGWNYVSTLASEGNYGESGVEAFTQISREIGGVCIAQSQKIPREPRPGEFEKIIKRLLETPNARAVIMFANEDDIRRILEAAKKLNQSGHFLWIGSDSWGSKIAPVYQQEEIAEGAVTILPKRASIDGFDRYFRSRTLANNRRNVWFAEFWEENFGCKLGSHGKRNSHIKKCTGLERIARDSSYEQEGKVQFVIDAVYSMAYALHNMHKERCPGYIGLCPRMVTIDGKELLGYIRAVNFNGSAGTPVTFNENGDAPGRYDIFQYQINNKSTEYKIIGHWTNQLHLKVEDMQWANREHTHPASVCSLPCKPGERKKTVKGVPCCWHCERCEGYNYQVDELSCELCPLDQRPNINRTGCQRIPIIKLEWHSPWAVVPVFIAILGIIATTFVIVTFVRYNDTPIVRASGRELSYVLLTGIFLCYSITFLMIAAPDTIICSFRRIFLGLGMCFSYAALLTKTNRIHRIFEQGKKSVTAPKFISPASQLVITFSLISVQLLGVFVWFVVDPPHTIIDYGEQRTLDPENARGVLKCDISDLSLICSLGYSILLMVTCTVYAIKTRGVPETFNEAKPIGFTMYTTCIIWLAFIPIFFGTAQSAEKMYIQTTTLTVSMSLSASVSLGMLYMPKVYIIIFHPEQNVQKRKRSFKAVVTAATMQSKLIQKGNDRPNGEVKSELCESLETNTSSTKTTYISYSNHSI
row,SMILES,z-score
1,CC1SC(C)C(=O)N(CC(=O)NCc2ccc(F)cc2)C1=O (centres undefined),0.557
2,CCS(=O)(=O)N1CCN(c2ccc(C(=O)NC3C4CC5CC(C4)CC3C5)cc2[N+](=O)[O-])CC1 (centres undefined),-0.251
3,Cc1cccc(C)c1Nc1nnc(SCC(=O)NCc2cccs2)s1,0.0784
4,O=C(COC(=O)c1cn(-c2ccccc2)nc1-c1ccccc1)c1ccc([N+](=O)[O-])cc1,-0.413
5,Cc1ccc(C)c(N(CC(=O)NC2CCCC2)C(=O)c2oc(C(C)(C)C)cc2C)c1,0.144
6,CC(C)(C)C(=O)OCc1cn(-c2ccc(Cl)cc2)nn1,-0.337
7,Cn1ncc([N+](=O)[O-])c1C(=O)N/N=C/c1ccc(F)cc1,0.132
8,CCN(CC)S(=O)(=O)c1ccc(OC)c(NC(=O)CSc2cc(C)ccc2C)c1,-0.247
9,CCOC(=O)CSc1nc2cc(C(=O)OC)ccc2c(=O)n1CCN1CCOCC1,-0.288
10,O=C(CCCOc1ccccc1)N1CCN(c2ccccn2)CC1,-0.0282
11,COCCNC(=O)c1onc(CSc2cccc(C)c2)c1C(=O)O,-0.0105
12,COc1ccccc1NS(=O)(=O)c1cc(NC(=O)CNC(=O)c2ccccc2)ccc1C,0.333
13,COc1ccc(N(C(=O)COc2ccccc2)C2C=CS(=O)(=O)C2)cc1 (centres undefined),0.581
14,Cc1ccc2c(c1)NC(=O)C(CC(=O)NCCN(CC(C)C)CC(C)C)O2 (centres undefined),1.96
15,CC(C)CC(=O)NCCCCc1ccccc1,-0.29
16,O=C(NCCN1CCN(c2ccccc2)CC1)c1cccn2c(=O)c3ccccc3nc12,-0.678
17,Cc1cc(C)c2nc(C(F)(F)F)nc(NCCCN3CCCC3=O)c2c1,-0.00172
18,O=C1C=C(c2ccccc2)C(O)(c2ccccc2)C1 (centres undefined),-0.731
19,O=C(CSc1ncnc2c1oc1ccccc12)N1CCN(c2ccccc2)CC1,1.3
20,Cc1ccc(C2NC(=O)NC(O)(C(F)(F)F)C2C(=O)c2cccs2)o1 (centres undefined),-0.404
21,CN1C(=O)CSc2ccc(NC(=O)N3CCN(c4ccccn4)CC3)cc21,-0.23
22,Nc1cc(-c2nn[nH]n2)ccc1F,0.91
23,COc1ccc(N2CS(=O)(=O)/C(=C/N(C)C)C2=O)cc1,0.0604

row,SMILES,z-score
1,COc1cccc(-c2nnc(SCC(=O)Nc3cc(C)ccc3OC)n2N)c1,-0.148
2,CCCn1c(=O)c2c(C(F)(F)F)cc(-c3ccco3)nc2n(CCC)c1=O,-0.0167
3,O=C(/C=C/c1cc2c(cc1Br)OCO2)NCc1ccc(Cl)cc1,-0.78
4,COc1ccc(-n2c(Cc3ccccc3)nnc2SCC(=O)N2CCCc3ccccc32)cc1,-0.107
5,O=C(NC1CCCCC1)C(c1ccc(F)cc1)N(Cc1ccccc1)C(=O)CN1C(=O)c2ccccc2S1(=O)=O (centres undefined),-0.103
6,O=c1sc2ccccc2n1COc1ccc(Cl)cc1,-0.228
7,Cc1csc(NC(=O)/C=C/c2ccco2)n1,0.157
8,CCc1sc(C(=O)N2CCN(S(C)(=O)=O)CC2)cc1Br,1.03
9,Cc1cccc(OCC(=O)N/N=C/c2cn[nH]c2-c2ccc(Cl)c(Cl)c2)c1,-0.059
10,S=C(Nc1cccc(Cl)c1)Nc1ccccc1Oc1ccccc1,active: 15.4
11,Fc1ccccc1NC(=S)N1CCN(Cc2ccccc2)CC1,-0.181
12,COCCn1c(=O)[nH]c2cc(C(=O)OC)ccc2c1=O,-0.288
13,COC(=O)c1nc2nc(C)cc(=O)n2[nH]1,-0.262
14,C/C=C/c1ccc(Oc2nnnn2-c2ccc(C(N)=O)cc2)c(OC)c1,0.186
15,Cn1c(C(=O)N2CCN(c3ccc(Cl)cc3)CC2)cc2c(=O)[nH]c3ccccc3c21,-1.82
16,COc1ccc(-c2csc3[nH]c(=S)n(-c4ccccc4)c(=O)c23)cc1OC,-0.702
17,Cn1c(Cl)c(C(=O)Nc2ccc(Cl)cc2)c2ccccc21,-0.19
18,Cc1cc(/C=C(\C#N)C(=O)OCC(=O)NC(=O)NC(C)(C)C)c(C)n1CCC(C)C,0.318
19,CCCc1cc(C(N)=O)c(NC(C)=O)s1,0.129
20,COc1ccc(-c2cc(-n3c(C(F)(F)F)nc4ccccc43)n(CCC#N)n2)cc1,-0.215
21,CCN1C(=O)/C(=C/c2cc(C)n(C)c2C)SC1=Nc1ccc(OC)cc1,0.0957
22,O=C(CSc1nnc2ccccn12)NCCN1C(=O)CSC1=O,0.57
23,CCOC(=O)c1c(NC(C)=O)sc2c(OC)cccc12,-0.182

row,SMILES,z-score
1,Fc1ccccc1CSc1nnnn1-c1ccc2c(c1)OCO2,-0.141
2,COCCCNC(=O)CNC(=S)N(Cc1ccccc1F)C1CCCCC1,0.182
3,Cc1cc(Nc2cccc(F)c2)nc(NCc2ccccc2)n1,0.0224
4,CCOC(=O)C1CCN(C(=O)Cc2cccc3ccccc23)CC1,0.149
5,CC(=O)c1ccc(NC(=S)N2CCC(O)CC2)cc1,-0.123
6,O=C1c2ccccc2S(=O)(=O)N1CCOc1ccccc1,-0.253
7,COc1ccc(C(=O)/C=C/N(C)C)cc1OC,-0.0348
8,O=C(NC(c1ccccc1)c1ccccc1)c1ccc(Br)o1,-0.00121
9,Cn1nnc2cc(C(=O)NCCC3=CCCCC3)ccc21,-0.253
10,COc1cc(NC(=O)CN2CCC(C)CC2)c(C)cc1[N+](=O)[O-],-0.408
11,CCCOc1nnnn1-c1ccccc1,-0.0841
12,Cc1nc2ccc(NC(=S)NC3CC3)cc2nc1C,0.116
13,Cc1ccc(NC(=O)CN(C)S(=O)(=O)c2cnc[nH]2)cc1C,2.45
14,CC(=O)/C(C#N)=C1\NC(=O)C(Cc2ccc(C)c(C)c2)S1 (centres undefined),-0.263
15,CCCCCc1c(C)nc(Nc2ccc(F)cc2)[nH]c1=O,0.327
16,Cn1c(-c2ccc(Br)o2)nc2ccccc21,-0.202
17,COCc1nnc(NC(=O)CS(=O)(=O)Cc2ccccc2)s1,0.253
18,CC(C)NC(=O)C(=O)NNC(=O)C12CC3CC(CC(C3)C1)C2,1.02
19,Cc1ccccc1NC(=O)c1ccc2c(c1)OCCO2,0.532
20,Cc1nnsc1SCCNC(=O)c1ccc(F)cc1,-0.0218
21,Cc1csc(NC(=O)c2cc(-c3ccco3)nc3ccccc23)n1,-0.115
22,CC1CCCN(C(=O)C23CCC(C)(C(=O)C2)C3(C)C)C1 (centres undefined),-0.587
23,Cc1cccc(NN=C2c3ccccc3-c3ccccc32)c1,0.327

row,SMILES,z-score
1,Cc1ccn2cc(CNC(=O)c3cccs3)nc2c1,-0.224
2,CCOC(=O)c1cnc(SC)nc1Sc1ccccc1,0.18
3,COc1cc(CNCc2ccccn2)ccc1OCC(N)=O,0.0302
4,CC(C)(C(=O)c1ccccc1)/[N+]([O-])=C/c1ccccc1F,-0.172
5,CC(=O)Nc1ccc2[nH]c(C)c(CC=C(Cl)Cl)c(=O)c2c1,-0.48
6,CC(C)(C)CC(=O)Nc1nnc(C(F)(F)F)s1,-0.203
7,COc1ccccc1NC(=O)c1ccc(-c2ccc(Br)cc2)o1,-0.099
8,COc1ccccc1N1CCN(C(c2ccccc2)c2nnnn2CCc2ccccc2)CC1 (centres undefined),-0.391
9,O=c1c2ccccc2c(-c2ccc(Br)cc2)nn1Cc1ccccc1,-9.07e-05
10,O=C(CSc1nc2ccccc2s1)NNC(=O)Nc1ccc(Cl)c(Cl)c1,-0.0417
11,CC1CCCCN1C(=O)Cn1cc(C(=O)c2ccco2)c2ccccc21 (centres undefined),-0.13
12,COC(=O)c1ccc(NC(=O)CCc2c(C)nc3ncnn3c2C)cc1,-0.192
13,CCCN1C(=O)c2ccc(C(=O)NCc3ccco3)cc2C1=O,-0.102
14,COc1cc(/C=N/Nc2cc(C)nc(NS(=O)(=O)c3ccc(C)cc3)n2)ccc1O,-0.382
15,CCc1c(C)nc2cc(-c3cc(OC)cc(OC)c3)nn2c1N1CCN(CCN2CCOCC2)CC1,0.147
16,CC(C)CC(=O)Nc1nc2ccc(S(=O)(=O)N3CCOCC3)cc2s1,-0.0017
17,COc1cc2c(cc1OC)-c1nnnn1C(C)(C)C2,-0.0339
18,COc1ccc(CC(=O)N2CC3(C)CC2CC(C)(C)C3)cc1 (centres undefined),-0.196
19,COc1ccc(CCNc2nc(=O)[nH]nc2C)cc1OC,0.238
20,Cc1cc(N2CCC(C)CC2)nc2cccc(O)c12,0.156
21,Cn1c(CCNC(=O)c2cccs2)n[nH]c1=S,0.112
22,Cn1c(NCc2cccnc2)nc2c1c(=O)n(Cc1ccccc1F)c(=O)n2C,0.199
23,CN(C1CCCCC1)S(=O)(=O)c1ccc(NC(=S)NC(=O)c2cccs2)cc1,2.93

row,SMILES,z-score
1,COc1ccc(-c2nnc(SCC(=O)c3ccc4c(c3)OCCO4)o2)cc1,-0.00352
2,CN(/C(=N\S(=O)(=O)c1ccccc1)C(F)(F)F)c1ccccc1,-0.34
3,COc1ccc(Nc2ccc(N3C(=O)CCCC3=O)cc2[N+](=O)[O-])c(OC)c1,-0.123
4,COc1ccccc1NC(=O)CSc1nccc(=O)[nH]1,0.206
5,CC(C)(C)c1ccc(C(=O)NC(=S)Nc2nc3c(s2)CCCC3)cc1,1.95
6,CCN(CC)c1ccc2c(c1)OC(N)=C(C#N)C2c1cccnc1 (centres undefined),-1.34
7,CC(C)NC(=O)COc1ccc(S(=O)(=O)N2CCOCC2)cc1,0.359
8,Cc1ccsc1/C=C/c1ccc2ccccc2n1,-0.206
9,Cc1ccc(NC(=O)N2CCC(c3nc4c(nnn4Cc4c(F)cccc4Cl)c(=O)[nH]3)CC2)cc1,-0.8
10,O=C(CCNc1ccccc1)c1cccc([N+](=O)[O-])c1,-0.134
11,CC(/C=N/Nc1nncc(=O)[nH]1)=C\c1ccccc1,-0.244
12,Cc1ccccc1NS(=O)(=O)c1cc(C(=O)Nc2cccc([N+](=O)[O-])c2)ccc1C,-0.256
13,COC(=O)CN1C(=O)C(O)(CC(=O)c2ccc(Br)cc2)c2ccccc21 (centres undefined),-0.209
14,Cc1cc(C)cc(NC(=S)NCCCN2CCOCC2)c1,-0.183
15,COCCN1C=C(C(=O)OC)C(c2cc(Br)c(OC)c(OC)c2)C(C(=O)OC)=C1,-0.0355
16,CNc1nc(OCC(F)(F)F)nc(N2CCOCC2)n1,-0.112
17,Cc1ccc2cc3c(NC(=O)C4CCCO4)nn(CC(C)C)c3nc2c1 (centres undefined),-0.308
18,CCC(C)NC(=O)CNC(=S)N(Cc1ccccc1)Cc1cccnc1 (centres undefined),-0.198
19,Cc1cc(NC(=O)CSc2nnc(C3CC3)n2N)no1,-0.949
20,COCCCNC(=O)Cn1cc(C(=O)c2cccs2)c2ccccc21,-0.786
21,CC(C)NC(=O)c1ccc(COCC(F)(F)F)cc1,-0.258
22,Cc1nnc(SCC(=O)Nc2ccccc2)[nH]c1=O,0.599

# — PubChem BioAssay AID488969 (Vanderbilt High Throughput Screening Facility, 2010)
